# Data reported in PubChem BioAssay AID1461 (National Center for Advancing Translational Sciences (NCATS), 2008).
# Hit rate of the full screen: of about 220,000 compounds, about 2,300 (1%) were called active. Inconclusive results, whose numbers are uncertain, are shown with a selection of clear calls. Calls come from the whole dose curve; as a rule, active = well fitted inhibition curve with a large enough effect; inconclusive = small, poorly fitted or top-dose-only effect, or effect the other way; inactive = no such curve, though single readings can be large or run the other way. No potency is given beside an inconclusive call; the fits are too rough.
# Target: Neuropeptide S receptor (Homo sapiens) (UniProt Q6W5P4)
# Sequence of UniProt Q6W5P4 (Q6W5P4 whole entry, looked up): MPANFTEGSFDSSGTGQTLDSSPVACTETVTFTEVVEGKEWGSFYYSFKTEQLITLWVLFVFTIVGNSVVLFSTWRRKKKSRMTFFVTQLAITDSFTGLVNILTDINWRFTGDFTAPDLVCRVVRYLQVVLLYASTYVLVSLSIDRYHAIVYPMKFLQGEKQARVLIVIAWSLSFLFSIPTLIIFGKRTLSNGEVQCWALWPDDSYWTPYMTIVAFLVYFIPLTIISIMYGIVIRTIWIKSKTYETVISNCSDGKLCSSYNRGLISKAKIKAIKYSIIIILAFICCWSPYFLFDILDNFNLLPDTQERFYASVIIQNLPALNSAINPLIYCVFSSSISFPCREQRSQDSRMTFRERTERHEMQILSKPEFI
# Assay: qHTS Assay for Antagonists of the Neuropeptide S Receptor: cAMP Signal Transduction; note: nearly all actives have a fitted effect of over 50% in size
# Conditions: CHO-NPSR cells, cAMP TR-FRET, antagonist mode; activity change, negative = inhibition: at 38.3 µM (top of the series) unless noted
# % is set by controls: 0 for no effect and ±100 for the full control effect; potency is the fitted concentration of half-maximal effect; tags give direction and shape of the fitted curve.
Compound,"activity change, negative = inhibition",Potency
COC(=O)C(C(=O)OC)c1ccc(NC(=O)c2cccc(Cl)c2)cc1,inactive: 9.25%,
COc1ccc(C2=NOC(Cn3c(Cc4ccc(Cl)cc4)nc4c3c(=O)n(C)c(=O)n4C)C2)cc1 (stereo not given),,"inconclusive [inhibitor, partial curve]"
Cc1cc(CCC(=O)O)c(C)cc1CCC(=O)O,,"inconclusive [inhibitor, single point]"
COc1cccc(-c2cc(C(F)(F)F)n3nc(C(=O)N4CCCCC4c4cccnc4)cc3n2)c1 (stereo not given),,"inconclusive [inhibitor, single point]"
COc1ccc(C=O)cc1OC(=O)C1(C)Cc2ccccc2C(=O)O1 (stereo not given),inactive: 4.73%,
O=C(O/N=C(\c1ccccc1)c1ccncc1)c1ccccc1Cl,,"inconclusive [inhibitor, single point]"
O=C(c1cc(Sc2cccc(Cl)c2)nc2ccccc12)N1CCN(c2ccccn2)CC1,,"inconclusive [inhibitor, single point]"
COCCNC(=O)C(=O)N/N=C/c1ccc(C(=O)OC)cc1,inactive: 3.07%,
COc1ccc(N(C)C(=O)c2oc(=O)c3ccccc3c2-c2ccc(C)cc2)c(OC)c1,,"inconclusive [inhibitor, single point]"
COC(=O)c1sc(=S)n(-c2ccccc2OC)c1N,inactive: 5.51% [at 46.1 µM],
C=CCn1c2ccccc2c2nnc(SCCCn3c(=O)[nH]c4ccccc43)nc21,,"inconclusive [inhibitor, single point]"
CCC(Sc1ccc2nnc(-c3ccc(F)cc3)n2n1)C(=O)OC (stereo not given),inactive: -17.3% [at 46.1 µM],
O=C(N/N=C/c1ccc(-c2ccccc2[N+](=O)[O-])o1)[C@H]1C[C@@H]1c1ccccc1,inactive: -8.6%,
Oc1c(C(c2ccccc2Cl)N2CCCC2)ccc2cccnc12 (stereo not given),,active: 10 µM
O=S(=O)(Cc1ccccc1)N1CCCC(c2nc(-c3ccc(F)cc3)no2)C1 (stereo not given),,"inconclusive [inhibitor, partial curve, poor fit]"
Cc1ccc(-c2nnc(-c3cccc(Br)c3)o2)cc1,,"inconclusive [inhibitor, single point]"
CCc1ccc2n(-c3ccc(OC)cc3)c([S-])c(C(=O)Nc3cc(C)cc(C)c3)[n+]2c1,,active: 10 µM
O=C(Nc1cccc2c1CCCC2)C1CCN(c2nnnn2-c2ccccc2)CC1,,"inconclusive [inhibitor, single point]"
Cc1ccc(C(=O)N2CCN(c3ccc([N+](=O)[O-])cc3-n3cccc3)CC2)cc1,,active: 10 µM
Cc1ccc(-n2c(Cc3ccccc3)n[nH]c2=S)c(C)c1,inactive: -11.1%,
